{"source": "paper PMC12136788", "binders": {"B1": {"name": "chr9:5785663:5785664:-_ENSG00000099219_ENST00000339450|hu_mus|FALSE|FALSE (ssRNA)", "RNA": "GGGAGUUCUACAGUCCGACGAUCCGAGCAAUUUCCAGAGGCUCCUCUUCUGCGGUGCACACGUAACAGUGCUCUUGUUGACAUUCAGACAGUUCUGAGGGCCACUCUGAGAGGCGCCUUCCUGUUCUCACCUGACAAGGAUAUCAACAGAGGAUUGAGCAUCA"}, "B2": {"name": "7304538_7304739_528_CDS_ENSMUSG00000024764_ENSMUST00000025675|mouse|control|control (ssRNA)", "RNA": "GGGAGUUCUACAGUCCGACGAUCAUCGGUCAUUUCCUCCCGUUUUUCUCGGUCCUUCCAGCCCCACUCACUUUGCUCAUACAUCGUCUGCAUAUUGGUUUUGGUCAGGUCGAAGGCCCAGUCCACAGUGGCUGGCUCCAAUCCCAACAGAGGAUUGAGCAUCA"}, "B3": {"name": "127212780_127214178_858_CDS_ENSMUSG00000037300_ENSMUST00000118134|mouse|control|control (ssRNA)", "RNA": "GGGAGUUCUACAGUCCGACGAUCCAGGCUUCCGUGGUGGUAGAGCAUCAUUCCCCGCAGCUGCAGGGUCUGCACGUGGUUCUGGUUGAGCAGCAGGGCCUUCUGGAAGCUCUCGGUGGCUGCGUCAAAGUUGCCCAGUUCUCUCAACAGAGGAUUGAGCAUCA"}, "B4": {"name": "chrX:141883135:141883136:-_ENSMUSG00000041688_ENSMUST00000112835|mus_hu|FALSE|FALSE (ssRNA)", "RNA": "GGGAGUUCUACAGUCCGACGAUCCUAUUAAUCUGGUUUCUAACUAAGACAUCCCAAAACCUCUACCCCCAACCCUUACCUAACACCCCCCACUUCCCUCACCCUCCCUAUACCCCUUAAAACUGAUCUUAAUGAUGCUAUCUGCAACAGAGGAUUGAGCAUCA"}, "B5": {"name": "chr18:34792849:34792850:-_ENSMUSG00000024370_ENSMUST00000133181|mus_hu|FALSE|FALSE (ssRNA)", "RNA": "GGGAGUUCUACAGUCCGACGAUCCAGCAGACAUUAUAGCAUAUUACCUCCUGCUGUACACACAUGCACAGGCCUGAAACUCUCCAAGAGCACCAUAAGAAUGAUUCCCUUUACCUCAUCUAGAUAAAGGCUGAAAAAAAUGUACAACAGAGGAUUGAGCAUCA"}, "B6": {"name": "98312807_98321767_826_CDS_ENSG00000077147_ENST00000371142|human|control|control (ssRNA)", "RNA": "GGGAGUUCUACAGUCCGACGAUCCCAAUGAAUCCGAUGUUGAAAAAAGGACGGAUCAAGAUAUUUGUCAAAUCGAUCUUCAAAUUUCACAUCUGACUUUUUCCAUUUUACUGAAUAUGACAUCUGGAUUUUAGUAUUUGGAACCAACAGAGGAUUGAGCAUCA"}, "B7": {"name": "chr2:114699772:114699773:+_ENSG00000115091_ENST00000536059|hu_mus|FALSE|FALSE (ssRNA)", "RNA": "GGGAGUUCUACAGUCCGACGAUCUGACCCAUCGGUGUCAUACUUGUUAAACUCUUUUACUAAAUCUGGGCAGACAUAACUGUAGCGUUCCUUCACUGCUUUCGCAGUUUCCAAGGACUGCUCAGGAGGGAUUCCUACUUCUCGCAACAGAGGAUUGAGCAUCA"}, "B8": {"name": "chr10:5807933:5807934:-_ENSG00000057608_ENST00000380191|hu_mus|motif|central (ssRNA)", "RNA": "GGGAGUUCUACAGUCCGACGAUCGGGCUUACAGUAUUGAUUUCAUACAAUAUACAUUAUUUGCCAAAUUUUAAGUUUGUCCGGAUUAUUACAUAAUAUGUACUGCUGUUAGUCUUCUCCAUAAAUGUCAUUCUUCUUGCGCUUCAACAGAGGAUUGAGCAUCA"}, "B9": {"name": "chr9:107926503:107926504:+_ENSMUSG00000032594_ENSMUST00000035214|mus_hu|motif|central (ssRNA)", "RNA": "GGGAGUUCUACAGUCCGACGAUCGGGGGCCAGUUGCACACUGAGGGCAGAGGAUGCAGCACAUGGGCCACAAAAGGAGAGCGGCAUAGAAGGUCCUGGCCAGGUGAAAGCCAAUGGUCAGAUUCUAUUCAGCUUAUUAUUCUGCAACAGAGGAUUGAGCAUCA"}, "B10": {"name": "chr2:48026839:48026840:+_ENSG00000116062_ENST00000540021|hu_hu|hu_hu_hu_mus_False|38_98 (ssRNA)", "RNA": "GGGAGUUCUACAGUCCGACGAUCAUAGUGAGCCACUAGAGUCCUAAAUCUGGAACAGUGGCGGUCAUCCGAAAACUGGCCGAUGAAAAACUUGCCCAGUGAAGUAUCCACAAAGCAAACACCAUACACACGAGUGUGACCAGACAACAGAGGAUUGAGCAUCA"}, "B11": {"name": "chr10:33190432:33190433:-_ENSG00000150093_ENST00000302278|hu_mus|hu_hu_hu_mus_True|18_58 (ssRNA)", "RNA": "GGGAGUUCUACAGUCCGACGAUCUACAUUUUCCAAACCUGCAUGUGAAUAAAACCCUGGCCACAGAGCCCCAAAACUACCUAACUGUGACUAAGAUGCUGCUGCUGUGAGCUUGGUUGUUGUGGGACCGCCUGAGUAGGAUUCCAACAGAGGAUUGAGCAUCA"}, "B12": {"name": "chr1:46159212:46159213:+_ENSG00000159596_ENST00000372025|hu_mus|hu_hu_hu_mus_True|88_98 (ssRNA)", "RNA": "GGGAGUUCUACAGUCCGACGAUCUCUGAUCCCUCCCAAGAAAGAUAGGAAACUGGCUCCAUAAGCCAUCUGAGUGAAAGCUAGGACGGGGAUAUAAGACUUUGUUAUUACCAUGAGAAGUGGGGGAGCAGUAAAGGGGAUUAACAACAGAGGAUUGAGCAUCA"}, "B13": {"name": "chr9:59240146:59240147:-_ENSMUSG00000025234_ENSMUST00000171975|mus_mus|motif|central (ssRNA)", "RNA": "GGGAGUUCUACAGUCCGACGAUCGCGUCAAGGCCACAGAGGAGUAGGCUGGGAUAGGAUCAUUCAUGAACUGAAGCAACGGAACCCUUUAACAGGCCGAGGCAUUUGCUUAGAAUGUGACUUCCUGGAUCUAGAUCCAGAAGCCAACAGAGGAUUGAGCAUCA"}, "B14": {"name": "chr3:179287964:179287965:+_ENSG00000136518_ENST00000429709|hu_hu|hu_hu_hu_mus_True|28_68 (ssRNA)", "RNA": "GGGAGUUCUACAGUCCGACGAUCCUUGAGUGGUGAGAUGGCCUCCAUGUUCUCCCUGGGCACGCGGAGAGCAUUAGUGUCUAUGUAGUAGGUGGGCCCGCCCUGCUUGCCUUUAUCACCAUCAAUCUCCAUCAUUGUACUUCCCAACAGAGGAUUGAGCAUCA"}, "B15": {"name": "chr7:149068622:149068623:-_ENSMUSG00000025139_ENSMUST00000001950|mus_hu|mus_mus_mus_hu_False|38_58 (ssRNA)", "RNA": "GGGAGUUCUACAGUCCGACGAUCGUGAGGCCUCUGAGUGUGGCUUGUGGUCUGUCCUGGGUUAGAGUUGUUAAUAUCACUAAGUGGACCAUCUAGAGAGGUUCUGCCCCGCCUGACACCUUCAUUCCCAAUGGAGAAGAAAUCCAACAGAGGAUUGAGCAUCA"}, "B16": {"name": "chr3:196509625:196509626:+_ENSG00000180370_ENST00000327134|hu_hu|motif|central (ssRNA)", "RNA": "GGGAGUUCUACAGUCCGACGAUCAACAGAGGGCAAAGGUUUCAAACUGUGAUUGGCUGACAAAGGGUCUUUGCCUCCAGUGCGGAAGAUGGUGCUGCUCAUUCGCACAGGAGGUGCUGGAGGCUUAUCUUCCAGUUCUCCGUUCAACAGAGGAUUGAGCAUCA"}, "B17": {"name": "chr22:32879901:32879902:+_ENSG00000100225_ENST00000397426|hu_mus|hu_hu_hu_mus_False|18_98 (ssRNA)", "RNA": "GGGAGUUCUACAGUCCGACGAUCCUCUUCCAUACUCGCAUUAUCUUGAAUUGACUCAGCUUCAACAUUUUGACUAGGCCCUUCCAUACUGUCAUCAGUCCAGGCAUCAAAUGGGGUUGCCUGUCCUUGGGAUGAAUCAGUCCCCAACAGAGGAUUGAGCAUCA"}, "B18": {"name": "chr7:54825262:54825263:-_ENSG00000132432_ENST00000352861|hu_hu|hu_hu_hu_mus_False|38_98 (ssRNA)", "RNA": "GGGAGUUCUACAGUCCGACGAUCCUGCCGGCUGGGCACAAACUGCAGCAUUACCUGAUCCAUGUUUGUUGGAUGGCGGAUUGAGAGCGUAGAGACAACGUAGCACUGAGAGAACCGAGCCCAACGGAACCGGAAGCUGGCAACCAACAGAGGAUUGAGCAUCA"}, "B19": {"name": "chr1:45478652:45478653:+_ENSG00000126088_ENST00000246337|hu_mus|FALSE|FALSE (ssRNA)", "RNA": "GGGAGUUCUACAGUCCGACGAUCGCAAGCCUCGGGAGAUCGGCAGGUGCUGAAGAAGUCCUGGGCAGCCCUGGUUUCCCUAAACUCUGGUAAGUAGCGGCCUGCCUGUCUCAUGCACCAAACGGGAGUAUAGUCUGUUUCCUCCAACAGAGGAUUGAGCAUCA"}, "B20": {"name": "chr2:26332712:26332713:+_ENSG00000084733_ENST00000264710|hu_mus|motif|central (ssRNA)", "RNA": "GGGAGUUCUACAGUCCGACGAUCGUUUCUAAGCCACUUGCUGAUGUUCUCAAAGCUUUUACCGUUGGUGAUGUCAUACACGGGCAUGAUGCCCAUUGCUCCUCUGUAGUAGGAGGUUGUGAUGGUGUGAAAUCGCUCCUGGCCCAACAGAGGAUUGAGCAUCA"}, "B21": {"name": "120165091_120165211_759_CDS_ENSMUSG00000027291_ENSMUST00000028752|mouse|control|control (ssRNA)", "RNA": "GGGAGUUCUACAGUCCGACGAUCUUUCUGAGUGCAGAUGCCUUCCUCGUUAAGCACCACAGUCAGAUCAUCCUGACCCACAGCCACUUUUCCAUCUGCCAGAGGGGCAACUAAGGGCUCCAGCUGCUUUCCUGUUGGGAAGAGCAACAGAGGAUUGAGCAUCA"}, "B22": {"name": "chr2:42509997:42509998:+_ENSG00000143924_ENST00000318522|hu_mus|hu_hu_hu_mus_True|68_108 (ssRNA)", "RNA": "GGGAGUUCUACAGUCCGACGAUCUCGCUGAGUUCUCUCCUCAUAAUUAAACAGGACUACCACUGAGGCAAUGAAAUAAACUAUCUCCCCUGUGGGAAGCAGGUAUACAUUCGCUCUACAGUCCUUUCCUCGAUAACCGUAUACCAACAGAGGAUUGAGCAUCA"}}, "note": "This is one part of the list."}
{"target": "T1, UNK ZnF1-3 (human, UniProt Q9C0B0 31-174)", "T1 sequence": "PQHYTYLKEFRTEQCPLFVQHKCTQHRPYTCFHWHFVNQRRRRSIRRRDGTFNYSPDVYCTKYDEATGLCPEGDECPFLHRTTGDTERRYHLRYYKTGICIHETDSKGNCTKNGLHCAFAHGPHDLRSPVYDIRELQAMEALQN", "test": "nsRBNS (natural sequence RNA bind-n-seq); RBNS binding buffer (assumed for nsRBNS): 25 mM Tris pH 7.5, 150 mM KCl, 3 mM MgCl2, 0.01% Triton X-100, 500 ug/ml BSA, 20 U/ml SUPERase-In, 4 C; UNK is unkempt and MSI1 is Musashi-1; names of the RNAs are library labels; protein concentration not given here; high values mean tight binding", "units": {"binding signal": "enrichment R"}}
{"binder": "B1", "binding signal": 0.578}
{"binder": "B2", "binding signal": 0.676}
{"binder": "B3", "binding signal": 1.45}
{"binder": "B4", "binding signal": 1.25}
{"binder": "B5", "binding signal": 1.53}
{"binder": "B6", "binding signal": 0.495}
{"binder": "B7", "binding signal": 0.668}
{"binder": "B8", "binding signal": 0.611}
{"binder": "B9", "binding signal": 2.67}
{"binder": "B10", "binding signal": 1.13}
{"binder": "B11", "binding signal": 1.41}
{"binder": "B12", "binding signal": 1.53}
{"binder": "B13", "binding signal": 1.29}
{"binder": "B14", "binding signal": 0.807}
{"binder": "B15", "binding signal": 0.944}
{"binder": "B16", "binding signal": 0.565}
{"binder": "B17", "binding signal": 1.1}
{"binder": "B18", "binding signal": 1.66}
{"binder": "B19", "binding signal": 0.902}
{"binder": "B20", "binding signal": 0.69}
{"binder": "B21", "binding signal": 0.916}
{"binder": "B22", "binding signal": 0.908}
